# Out of some 410,000 compounds screened, about 5,000 (1.2%) were called active. Inconclusive means that the source gave no clear call. Such entries were picked first, then a sample of the others. Calls follow the shape of the dose curve; as a rule, active = well fitted inhibition curve with a large enough effect; inconclusive = small, poorly fitted or top-dose-only effect; inactive = no such curve, though single readings can be large or run the other way. A potency beside an inconclusive call is a rough fit, not a confirmed value.
# Test: qHTS for Inhibitors of TGF-b; also: nearly all actives have a fitted effect of over 65% in size
# Conditions: HepG2 CAGA-GFP TGF-b/SMAD3 reporter, GFP fluorescence, 18 h, TGF-beta stimulated, 500 pg/mL final; series mostly up to 46.1 µM; activity, negative = inhibition: at the top concentration
# Procedure, shortened: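 TGF-beta reporter screen: HEPG2 CAGA-GFP, 1% FBS, 500 pg/mL TGF-beta final, 18 h; per-cell GFP summed per well; curves fitted and categorized by class.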
# % is scaled to controls: 0 for no effect and ±100 for the full control effect; potency is read from the fitted curve at half-maximal effect; tags tell the direction and shape of the fitted curve.
SMILES,Potency,"activity, negative = inhibition"
O=C(COC(=O)C1(c2cccc(F)c2)CCCC1)NCc1ccc2c(c1)OCO2,"inconclusive: 22.4 µM [inhibitor, single point]",–
Cc1ccc(Nc2nc(N)nc(CSc3nncn3C)n2)cc1,"inconclusive: 3.98 µM [inhibitor, single point]",–
O=C(NCCc1ccccc1)c1ccc2c(c1)N(Cc1ccccc1Cl)C(=O)c1ccccc1S2,"inconclusive: 6.31 µM [inhibitor, single point]",–
CN(C)CCCN(C(=O)c1cc2ccccc2oc1=O)c1nc2c(F)cccc2s1,–,inactive: -0.607%
Cc1ccc(C)c(NC(=O)CCN2CCc3ccccc3C2)c1,–,inactive: -0.269%
COC(=O)CN1C(=O)C2(C(C#N)=C(N)Oc3c2c(C)nn3-c2ccccc2)c2ccccc21 (stereo not drawn),"inconclusive: 7.94 µM [inhibitor, partial curve]",–
COc1cc(CNc2ccc(N3CCN(C(C)=O)CC3)cc2)ccc1OCc1ccccc1,"inconclusive: 35.5 µM [inhibitor, single point]",–
O=C(CSc1nncn1-c1ccccc1)NC1CCCc2ccccc21 (stereo not drawn),"inconclusive: 6.31 µM [inhibitor, single point]",–
CC(C)(C)Nc1nc(-c2ccccn2)nc2ccccc12,"inconclusive: 0.501 µM [inhibitor, full curve, poor fit]",–
CCCn1c(=O)c(C(=O)NCCc2ccc(OC)c(OC)c2)c(O)c2ccccc21,"inconclusive: 14.1 µM [inhibitor, single point]",–
CC(=O)c1ccc(NC(=O)C(C)Oc2ccc(N(C)S(=O)(=O)c3ccc(C)cc3)cc2)cc1 (stereo not drawn),"inconclusive: 11.2 µM [inhibitor, single point]",–
Cc1ccc2nc(-c3ccc(C#N)cc3)c(Cc3ccccc3C(F)(F)F)n2c1,"inconclusive: 22.4 µM [inhibitor, single point]",–
COc1ccc(OC)c(NC(=O)C2(C)CCN2C(=O)CCC2CCCC2)c1 (stereo not drawn),"inconclusive: 5.62 µM [inhibitor, single point]",–
CC(C)C(NS(=O)(=O)c1cccs1)C(=O)N1CCC(C(N)=O)CC1 (stereo not drawn),–,inactive: 17.9%
Cc1ccc(Nc2c([N+](=O)[O-])cc(C(=O)N3CC(=O)Nc4ccccc43)cc2[N+](=O)[O-])c(C)c1,"inconclusive: 5.01 µM [inhibitor, partial curve, poor fit]",–
COc1ccc(CC(=O)Nc2nc3c(s2)CC(C(C)(C)C)CC3)cc1 (stereo not drawn),"inconclusive: 25.1 µM [inhibitor, partial curve, poor fit]",–
COc1ccc(NC(=O)C2=CC(c3cccs3)=NS(=O)(=O)N2C)cc1,inactive,–
COc1cccc(NC(=O)CCC2CCN(C(=O)C(OC)c3ccccc3)CC2)c1 (stereo not drawn),–,inactive: 4.86%
Cc1ccc(NC(=O)CN2C(=O)CCSc3ccc(S(=O)(=O)N4CCCC4)cc32)cc1,"inconclusive: 35.5 µM [inhibitor, single point]",–
CCCCN1C(=O)C(CC(=O)NCCCCc2ccccc2)CC(C(=O)N(C(C)C)C(C)C)=C1C (stereo not drawn),"inconclusive: 15.8 µM [inhibitor, single point]",–
CN1C(=O)/C(=N\OC(=O)c2ccccc2Cl)c2ccccc21,"inconclusive: 22.4 µM [inhibitor, partial curve, poor fit]",–
O=C(/C=C/c1ccc(Br)cc1)N1CCN(c2cccc(C(F)(F)F)c2)CC1,"inconclusive: 20 µM [inhibitor, partial curve, poor fit]",–
O=C(Nc1nnc([C@H]2C[C@H](O)[C@@H](CO)O2)s1)c1cccc(OC(F)(F)F)c1,–,inactive: 20.2%

SMILES,Potency,"activity, negative = inhibition"
O=[N+]([O-])c1ccc2nc(-c3ccc(Cl)cc3)[nH]c2c1,"inconclusive: 15.8 µM [inhibitor, single point]",–
CCOC(=O)c1c(C)oc2nc(C)nc(NCC3CCN(Cc4ccc(Cl)cc4)CC3)c12,–,inactive: -23%
CC1Sc2ccc(S(=O)(=O)N3CCN(c4ccccc4)CC3)cc2NC1=O (stereo not drawn),"inconclusive: 12.6 µM [inhibitor, partial curve, poor fit]",–
Cc1cc(-c2csc(NC(=O)c3ccc(S(=O)(=O)N(C)C)cc3)n2)c(C)n1-c1ccccc1,"inconclusive: 5.62 µM [inhibitor, single point]",–
CC(Oc1ccc(Br)cc1)c1nc2c3ccccc3nc(=S)n2[nH]1 (stereo not drawn),"inconclusive: 35.5 µM [inhibitor, partial curve, poor fit]",–
Cc1cccc(NC(=O)c2ccccc2NC(=O)c2ccccc2)n1,"inconclusive: 3.16 µM [inhibitor, partial curve, poor fit]",–
COc1cccc2c1C(=O)c1c(O)c3c(c(O)c1C2=O)CC(O)(C(=O)CO)CC3OC1CC(N(C)C)C(O)C(C)O1 (stereo not drawn),active: 0.794 µM,–
O=C(NC1CCCC1)c1c[nH]c2ccc(S(=O)(=O)Nc3cccc(C(F)(F)F)c3)cc2c1=O,"inconclusive: 35.5 µM [inhibitor, single point]",–
O=C(Cn1nc(-c2ccccc2)ccc1=O)Nc1ccc(NC(=O)c2ccccn2)cc1,"inconclusive: 5.62 µM [inhibitor, single point]",–
COc1ccc(-c2c(C)[nH]n3c(=O)c(Cc4ccccc4)c(C)nc23)cc1,"inconclusive: 17.8 µM [inhibitor, single point]",–
Cc1ccnc(NC(=O)COc2ccc3oc4c(c3c2)CCCC4)c1,–,inactive: -15.1%
COc1ccc(Cl)cc1-c1n[nH]c(=S)n1C,–,inactive: 9.19%
CNC(=O)COC(=O)c1cccnc1SC,–,inactive: -5.36%
CN(C)S(=O)(=O)Oc1ccc(C(=O)Nc2cccc(C(F)(F)F)c2)cc1,"inconclusive: 28.2 µM [inhibitor, single point]",–
O=C(c1ccco1)N1CCN(C(=O)c2ccc(Cn3cc(Br)cn3)o2)CC1,"inconclusive: 3.16 µM [inhibitor, single point]",–
O=c1c(Cl)cc(Cl)nn1-c1ccccc1,"inconclusive: 17.8 µM [inhibitor, single point]",–
COc1ccccc1-n1c(=O)c(C#N)c(-c2ccc([N+](=O)[O-])cc2)c2cc(C(=O)c3cc(F)ccc3O)cnc21,–,inactive: 5.14%
Cc1cc(NS(=O)(=O)c2ccc(NC(=O)Cc3cccs3)cc2)no1,"inconclusive: 17.8 µM [inhibitor, single point]",–
CCOC(=O)c1c(C)[nH]c(C)c1S(=O)(=O)N(C)CC(=O)Nc1cccc(C)c1,–,inactive: -14.8%
Cc1c(C(=O)N2CCCC2)oc2c1-c1nn(CC(=O)NCc3cccc(Br)c3)cc1CC2,–,inactive: -27.4%
CCOc1ccccc1OCCCC(=O)N(CC)CC(=O)Nc1c(F)cccc1F,"inconclusive: 3.55 µM [inhibitor, full curve, poor fit]",–
CC(=O)Nc1ccc(Sc2ccc([N+](=O)[O-])o2)cc1,"inconclusive: 35.5 µM [inhibitor, single point]",–
CCCCn1c(N)c(-c2nc3ccccc3o2)c2c([N+](=O)[O-])nn(C)c(=O)c21,–,inactive: -5.55%

SMILES,Potency,"activity, negative = inhibition"
Cc1ccc(C)c(OCc2cc(C(=O)N3CCN(c4ccccc4C)CC3C)no2)c1 (stereo not drawn),–,inactive: 0%
COc1cccc(CNC(=O)COC(=O)c2ccc(-c3ccc(O)cc3)cc2)c1,–,inactive: -5.59%
CCC(C)[C@H](NC(=O)Nc1ccccc1F)C(=O)O (stereo partly drawn),–,inactive: -8.44%
Cc1ccccc1Nc1nc(N)nc(CSc2n[nH]c(N)n2)n1,–,inactive: -2.99%
CCOC(=O)c1ccc(NC(=S)NCc2ccc(F)cc2)cc1,"inconclusive: 31.6 µM [inhibitor, single point]",–
O=C(CCN1CCN(c2ccccc2F)CC1)Nc1ccccc1F,–,inactive: -9.01%
Cc1ccc(CN=C(N)Nc2nc(C)cc(C)n2)cc1,active: 15.8 µM,–
Cc1ccc(C2=CC(=O)C[C@H](c3ccc4c(c3)OCO4)C2)cc1,–,inactive: -2.87%
CCn1c2ccccc2c2cc(NC(=O)c3cc(OC)c(OC)c(OC)c3)ccc21,active: 0.794 µM,–
COc1ccc(-n2ncc3c(N4CCN(c5cccc(C)c5)C(C)C4)ncnc32)cc1 (stereo not drawn),"inconclusive: 2.82 µM [inhibitor, single point]",–
CCOC(=O)CNc1c(-c2ccc(O)cc2)nc2ccc(Cl)cn12,"inconclusive: 14.1 µM [inhibitor, single point]",–
Cc1ccc(NC(=O)c2ccc3nc[nH]c3c2)c(O)c1,"inconclusive: 35.5 µM [inhibitor, single point]",–
Cc1oc2c(C)c(O)ccc2c(=O)c1-c1ccc2ccccc2n1,–,inactive: -3.3%
O=C(CCSCCC(=O)NN=Cc1ccccc1O)NN=Cc1ccccc1O,"inconclusive: 11.2 µM [inhibitor, partial curve, poor fit]",–
O=C(CCl)Nc1cccn2ncnc12,"inconclusive: 0.891 µM [inhibitor, full curve, poor fit]",–
Cc1ccc(-c2cccc(C(=O)NCCc3ccccc3)n2)c2ccccc12,"inconclusive: 35.5 µM [inhibitor, single point]",–
CC(C)CN1CC(COCc2ccccc2)Oc2ccccc2S1(=O)=O (stereo not drawn),"inconclusive: 7.08 µM [inhibitor, full curve]",–
CCOC(=O)c1c(NC(C)=O)sc2c(OCCN(CC)CC)c(Br)ccc12,–,inactive: -0.828%
CC1(C(=O)Nc2ccc(Cl)c(Cl)c2)CCN1C(=O)CC(c1ccccc1)c1ccccc1 (stereo not drawn),"inconclusive: 22.4 µM [inhibitor, single point]",–
O=C(NCc1ccc(OC(F)(F)F)cc1)C1CC(c2ccc(C(F)(F)F)cc2)=NO1 (stereo not drawn),"inconclusive: 7.08 µM [inhibitor, full curve, poor fit]",–
Cc1c(F)cccc1NS(=O)(=O)c1ccc(N2CCCC2=O)cc1,–,inactive: -23.9%
FC(F)(F)c1ccccc1Cc1c(-c2ccccc2)nc2ccc(Br)cn12,"inconclusive: 10 µM [inhibitor, single point]",–

# From PubChem BioAssay AID588855 (National Center for Advancing Translational Sciences (NCATS), 2011)
